Measurements published in PubChem BioAssay (NCATS).
Values joined by “and” are separate entries in the source; they are usually repeats but may differ in a detail not shown here. Equal values may be shown once. Inconclusive means that the source gave no clear call. Such entries were picked first, then a sample of the others. A potency beside an inconclusive call is a rough fit, not a confirmed value. Active and inactive are the calls of the source. Calls come from the whole dose curve; as a rule, active = well fitted curve in the direction sought with a large enough effect; inconclusive = small, poorly fitted or top-dose-only effect, or another doubt; inactive = no such curve, though single readings can be large; an effect the other way counts as inactive or inconclusive. Peptide text beside a SMILES is read from it. * marks the point of attachment. Cbz = O=C(OCc1ccccc1)*

How the values were obtained:
[1] = Viability qHTS for spleen associated tyrosine kinase inhibitor (SYKi) naive MV4-11 cells (AID 1963823); details: MV4-11 AML viability, CellTiter-Glo luminescence, 72 h; viability (% of control): at 45 µM (top of the series); note: nearly all actives have a fitted effect of over 40% in size
Summary of the method: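 Luminescence from CellTiter-Glo, developed 10 min at room temperature, gave viability of MV4-11 cells never exposed to SYK inhibitor. Cells (500/well) had been incubated with compounds for 72 hr under standard culture conditions.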

[2] = Quantitative highthroughput screen to assess conditional lethalithy of NOMO1 cells grown in Human Plasma-Like Medium with dialyzed fetal bovine serum (HPLM+ds) (AID 1963878); details: NOMO1 AML cells in HPLM+ds, CellTiter-Glo viability, 48 h; viability: at 45.8 µM (top of the series); note: nearly all actives have a fitted effect of over 35% in size;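 for Viability: 100% = DMSO wells and 0% = empty wells on each plate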
Summary of the method: (§1)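 Each medium arm—HPLM with 10% dialyzed FBS, or RPMI1640 with 5 mM glucose and 10% untreated or dialyzed FBS—was screened against an 11-point, 3-fold compound titration for 48 h at 37 °C, with CellTiter-Glo luminescence as endpoint.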

[3] = Quantitative highthroughput screen to assess conditional lethalithy of P12 Ichikawa cells grown in Human Plasma-Like Medium with dialyzed fetal bovine serum (HPLM+ds) (AID 1963879); details: Potency: viability; note: nearly all actives have a fitted effect of over 35% in size
Summary of the method: as §1

[4] = Quantitative highthroughput screen to assess conditional lethalithy of P12 Ichikawa cells grown in RPMI1640 with dialyzed fetal bovine serum (RPMI+ds) (AID 1963880); details: Potency: P12-Ichikawa viability; note: nearly all actives have a fitted effect of over 35% in size;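 for Viability: 100% = DMSO wells and 0% = empty wells on each plate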
Summary of the method: as §1

[5] = Quantitative highthroughput screen to assess conditional lethalithy of P12 Ichikawa cells grown in RPMI1640 with untreated serum (RPMI+s) (AID 1963881); details: Potency: viability; note: nearly all actives have a fitted effect of over 35% in size;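 for Viability: 100% = DMSO wells and 0% = empty wells without cells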
Summary of the method: as §1

[6] = Quantitative highthroughput screen to assess conditional lethalithy of SEM cells grown in Human Plasma-Like Medium with dialyzed fetal bovine serum (HPLM+ds) (AID 1963882); note: nearly all actives have a fitted effect of over 35% in size
Summary of the method: as §1

[7] = Quantitative highthroughput screen to assess conditional lethalithy of SEM cells grown in RPMI1640 with unreated serum (RPMI+s) (AID 1963883); details: SEM B-ALL cells, CellTiter-Glo viability, 48 h; viability: at 45.8 µM (top of the series); note: nearly all actives have a fitted effect of over 35% in size;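 for Viability: 100% = DMSO wells and 0% = empty wells without cells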
Summary of the method: as §1

[8] = Quantitative highthroughput screen to assess conditional lethalithy of SEM cells grown in RPMI1640 with dialyzed fetal bovine serum (RPMI+ds) (AID 1963884); details: SEM B-ALL cells, RPMI+dialyzed FBS, CellTiter-Glo viability, 48 h; viability: at 45.8 µM (top of the series); note: nearly all actives have a fitted effect of over 35% in size
Summary of the method: as §1

[9] = Cellular viability qHTS for adrenocortical cancer (ACC) cell line SW-13 (AID 1963989); details: SW-13 ACC cells viability, CellTiter-Glo, 48 h; activity (max response): stronger effect = lower value; note: nearly all actives have a fitted effect of over 65% in size;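 for activity (max response): cells grown in serum-free medium with ITS supplement; % is set by controls: 0 for no effect and ±100 for the full control effect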
Summary of the method: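 Here, serum-free SW-13 cultures were dosed up to 46 uM. Following 48 h, ATP-dependent luminescence (CellTiter-Glo) reported viable cells, and logistic modeling produced IC50 values.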

[10] = Cellular viability qHTS for adrenocortical cancer (ACC) cell line NCI-H295R (AID 1963990); details: CellTiter-Glo ATP luminescence, 48 h; activity change, negative = viability loss: at 46.1 µM (top of the series); note: nearly all actives have a fitted effect of over 60% in size;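 for activity change, negative = viability loss: 0% = DMSO only wells and -100% = full killing with cytotoxic reference compound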
Summary of the method: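 Viability of NCI-H295R after 48 h of treatment (final up to 46 uM) measured through cellular ATP luminescence.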
Potency is the fitted concentration of half-maximal effect; tags give direction and shape of the fitted curve.

Structure (SMILES)	Potency [1]	Potency [2]	Potency [3]	Potency [4]	Potency [5]	Potency [6]	Potency [7]	Potency [8]	Potency [9]	Potency [10]	activity (max response) [9]
NC(=O)c1cccc2cn(-c3ccc([C@@H]4CCCNC4)cc3)nc12	active: 9.2 µM and active: 14.8 µM	inconclusive: 37.2 µM [cytotoxic, single point]	inconclusive: 20.9 µM [cytotoxic, partial curve]	inconclusive: 20.9 µM [cytotoxic, partial curve]	inconclusive: 18.7 µM [cytotoxic, partial curve]	inconclusive: 9.35 µM [cytotoxic, partial curve]	inconclusive: 16.6 µM [cytotoxic, partial curve]	inconclusive: 13.2 µM [cytotoxic, partial curve]	inconclusive: 31.6 µM [cytotoxic, single point]	inactive	–
Cc1ccc(S(=O)(=O)N[C@@H](Cc2ccccc2)C(=O)CCl)cc1	active: 9.34 µM	inconclusive: 29.6 µM [cytotoxic, single point]	inconclusive: 26.4 µM [cytotoxic, single point]	–	inconclusive: 29.6 µM [cytotoxic, single point]	inconclusive: 23.5 µM [cytotoxic, partial curve, poor fit]	inconclusive: 23.5 µM [cytotoxic, partial curve, poor fit]	–	inconclusive: 25.1 µM [cytotoxic, single point]	–	–
Cc1ccc2nc(NCCN)c3ncc(C)n3c2c1	active: 2.31 µM and inconclusive: 2.35 µM [cytotoxic, full curve]	active: 23.5 µM	inconclusive: 29.6 µM [cytotoxic, single point]	inconclusive: 37.2 µM [cytotoxic, single point]	inconclusive: 33.2 µM [cytotoxic, single point]	active: 11.8 µM	active: 23.5 µM	–	–	–	–
C[C@H](NC(=O)C(=O)Nc1ccccc1C(C)(C)C)C(=O)N[C@@H](CC(=O)O)C(=O)COc1c(F)c(F)cc(F)c1F	active: 2.35 µM	inconclusive: 9.35 µM [cytotoxic, full curve]	active: 20.9 µM	–	–	active: 5.26 µM	–	–	inconclusive: 35.5 µM [cytotoxic, single point]	inconclusive: 35.5 µM [cytotoxic, single point]	–
Cc1nc2ccc(C(=O)N3CCC4(CC3)CC(=O)c3c(cnn3C(C)C)C4)cc2[nH]1	inconclusive: 23.5 µM [cytotoxic, partial curve]	inconclusive: 37.1 µM [cytotoxic, single point]	inconclusive: 33.1 µM [cytotoxic, single point]	inconclusive: 33.1 µM [cytotoxic, single point]	inconclusive: 0.0012 µM [rising, full curve]	inconclusive: 0.0012 µM [rising, full curve]	inconclusive: 3.31 µM [cytotoxic, full curve, poor fit]	inconclusive: 29.5 µM [cytotoxic, single point]	inconclusive: 12.6 µM [cytotoxic, partial curve]	–	–
O=C(Nc1cccnn1)N1CCC(=Cc2cccc(Oc3ccc(C(F)(F)F)cn3)c2)CC1	inconclusive: 4.11 µM [cytotoxic, full curve]	inconclusive: 0.0017 µM [rising, full curve, poor fit]	inactive	inactive	–	–	inactive	inconclusive: 16.6 µM [cytotoxic, partial curve, poor fit]	inconclusive: 12.6 µM [cytotoxic, partial curve]	–	–
COCCNCCCn1c(C(=O)CF)c(-c2ccc(C)cc2)c2c(N)ncnc21	active: 4.17 µM	inactive	–	inactive	inactive	–	–	–	–	–	inactive: 7.79%
CCCCc1ccc(NS(=O)(=O)c2ccc(C)c(C(=O)N3CCN(c4cccc(C)c4C)CC3)c2)cc1	inconclusive: 42.8 µM [cytotoxic, partial curve]	inactive	inactive	–	inactive	inactive	inactive	–	–	active: 44.7 µM	–
c1cc(-c2sc(-c3ccncc3)c(-c3ccncc3)c2-c2ccncc2)ccn1	inconclusive: 14.8 µM [cytotoxic, partial curve]	inconclusive: 33.2 µM [cytotoxic, single point]	inactive	inactive	–	–	active: 2.35 µM	–	–	inconclusive: 35.5 µM [cytotoxic, single point]	–
CC(C)C[C@@H](C=O)NC(=O)[C@H](CC(C)C)NC(=O)[C@H](CC(C)C)NC(=O)OCc1ccccc1 (Cbz-Leu-Leu-Leu-aldehyde)	active: 0.833 µM	active: 1.48 µM	active: 2.96 µM	active: 2.64 µM	–	–	–	–	active: 0.794 µM	–	–
